The campaign covered roughly 150,000 compounds. About 540 (0.36%) showed an effect of 50% or more. Some of the results follow.

The test has as its system Plasmodium falciparum. In words: Primary screen in NF54 nanoGlo assay, in single point, at 2uM, 72h; a lower Z score goes with more inhibition. As to conditions: timepoint 72 hour. It is filed as functional, Erythrocyte.
The term % Inhibition denotes the drop in the measured response relative to a control, in per cent. For the compound `CC(C)[C@H](NC(=O)c1ccc(=O)n(C)c1)C1(CO)CCCC1`, the “% Inhibition” value is -5% and the Z score was 0.56.
For `CC[C@H]1CN(C(=O)NC(C2CC2)C2CC2)CCO1`, in that order: 3% and -0.34.
For `c1ccc(CCCN2CCCC[C@H]2c2ncc[nH]2)cc1`, in that order: -6% and 1.1.
In the same order, the values of `Cc1ccc(C)c(C(=O)N2CCC3(CCC(=O)N(Cc4ccncc4)C3)CC2)c1` are -9% and 0.91.
Turning to `COc1ccccc1[C@H]1CC(=O)Nc2c1c(=O)[nH]n2C1CCCCCCC1`, the “% Inhibition” value is on record as 28% and the Z score was -3.11.
In the same order, the values of `Cn1cc(C2CCN(Cc3nnc(-c4ccccc4)o3)CC2)cn1` are 1% and -0.14.
For `Cc1cc(CNC(C)C2CCCO2)no1` (stereo unspecified), in that order: 6% and -1.12.
For `CN(C(=O)c1nn2c(C(F)(F)F)c3c(nc2c1Cl)-c1ccccc1CC3)c1ccc(OC(F)(F)F)cc1`, in that order: 25% and -3.28.
For `CN(C)[C@@H](CNS(C)(=O)=O)c1cccs1`, the “% Inhibition” value was determined as 17% and the Z score is -1.97.
With `COC(=O)Cn1ccc(NS(=O)(=O)N2CC3CCC2C3)n1` (stereo unspecified), the “% Inhibition” value is -6% and the Z score was 0.53.
In the same order, the values of `COc1ccc(CNC(=O)Cn2c(=O)n(Cc3cccc(Cl)c3)c(=O)c3ccccc32)cc1` are -7% and 1.
As to `Cc1ccsc1-c1nnc(CC(=O)NCc2cccc(Cl)c2)o1`, the “% Inhibition” value is listed as -6% and the Z score worked out at 0.95.
For `CN(c1ccccc1NC(=O)NCc1nccn1C)C1CCCC1`, in that order: 32% and -3.63.
On to `CCN1CCN(CC(=O)N2CC[C@@]3(CCCN(CCC4CCCCC4)C3)C2)CC1`, for which the “% Inhibition” value is -8% and the Z score was found to be 1.12.
On to `C[C@H]1CN(C(=O)c2cccn3nccc23)C[C@@H]1CS(N)(=O)=O`, for which the “% Inhibition” value is -3% and the Z score stood at 0.45.
As for `CN1CC2(CCN(c3ncnc4[nH]cnc34)CC2)C[C@@H](c2ccccc2)C1=O`, the “% Inhibition” value was -5% and the Z score is listed as 0.92.
For `c1ccc(-c2cnn3c(-c4ccsc4)ccnc23)cc1`, in that order: -1% and 0.1.
In the same order, the values of `C[C@@H](CCc1ccccc1)NC(=O)c1n[nH]c2ccccc12` are -9% and 1.17.
For `CN1CCn2ccnc2C12CCN(C(=O)Nc1ccccc1F)CC2`, the “% Inhibition” value was -7% and the Z score came to 0.97.
For `CCc1nc(C)c(CNC(=O)Cc2cnc[nH]c2=O)s1`, in that order: -3% and 0.55.
In the same order, the values of `COc1ccc(CC(=O)N2CCCN(c3cc(-c4ccc(Cl)cc4)n[nH]3)CC2)cc1` are -13% and 1.36.
For `C[C@H]1CCOCCN1C(=O)NCc1ccccc1OC(C)(C)C`, in that order: 8% and -1.13.
As for `CCN(Cc1c(C(=O)N2CCCCCCC2)nc2ccc(Cl)cn12)C1CC1`, the “% Inhibition” value is given as -11% and the Z score stood at 1.66.
For `O[C@H]1[C@H](Nc2ncnc3c2ncn3C2CC2)CCCC1(F)F`, in that order: -7% and 1.07.
Regarding `OC1Cc2ccccc2C1NC1C[C@@H]2COC[C@H]12` (stereo partly specified), the “% Inhibition” value amounted to 16% and the Z score is given as -2.09.
Regarding `CN1C(=O)c2cccc(NC(=O)c3ccc(Cl)s3)c2C1=O`, the “% Inhibition” value is listed as -10% and the Z score is given as 1.76.
In the same order, the values of `O=C(NCCCn1ccccc1=O)c1cc(=O)c2ccccc2[nH]1` are 0% and -0.07.
For `Cc1ccc(C(=O)N2[C@H](C(=O)NCc3cccnc3)COC23CCN(C(=O)c2ccc(F)cc2)CC3)cc1`, the “% Inhibition” value is listed as 2% and the Z score is reported as -0.3.
For the compound `O=C(NCc1cc(C2CC2)on1)[C@H]1CCC[C@H](O)C1`, the “% Inhibition” value is -3% and the Z score is reported as 0.37.
As for `Cc1nc(N2CCCC2C(=O)N(C)CC2COCCO2)nc2cc(S(C)(=O)=O)ccc12` (stereo unspecified), the “% Inhibition” value is -5% and the Z score worked out at 0.59.
In the same order, the values of `O=C1C[C@H](c2ccccc2Br)c2ncn(-c3cccnc3)c2N1` are 25% and -3.19.
With `c1cncc(-c2c[nH]c([C@@H]3COCCN3C3CCOCC3)n2)c1`, the “% Inhibition” value was -8% and the Z score is recorded as 1.26.
Consider `CC(C)N1CC[C@H](c2nc3ncccc3[nH]2)C1`, for which the “% Inhibition” value stood at 30% and the Z score is listed as -3.41.
For `O=C(NCCO)c1nc2ccc(Cl)cn2c1Br`, in that order: -2% and 0.37.
In the same order, the values of `O=C(c1ccc(C(F)(F)F)cc1)[C@H]1CCCN(Cc2nc3ccccc3[nH]2)C1` are -3% and 0.32.
For `NC(=O)c1c(NC(=O)c2cc(S(=O)(=O)N3CCCCC3)ccc2Cl)sc2c1CCCC2`, in that order: -15% and 2.06.
As to `Cc1c(NC(=O)[C@H](C)c2ccc3c(c2)OCO3)noc1C(C)(C)C`, the “% Inhibition” value turned out to be 6% and the Z score is on record as -1.27.
In the same order, the values of `CCCNc1ncc(CN(C)Cc2cnn(C)c2)cn1` are 1% and -0.25.
For `Cc1nn(C)c(C)c1CC(=O)N(c1cccc(F)c1)C1CCOCC1`, in that order: -10% and 1.22.
For `NC1=NC2(CCN(c3ncnc4[nH]ccc34)CC2)C(=O)N1`, in that order: 1% and -0.11.
With `CC1CCN(C(=O)c2ccc3ncsc3c2)CC1`, the “% Inhibition” value is -7% and the Z score is on record as 0.96.
For `Cc1ccsc1-c1nccn1-c1ccc2c(c1)NC(=O)CO2`, in that order: -14% and 1.93.
In the same order, the values of `Cc1ccc(C(=O)N[C@@H](C)c2cnccn2)o1` are -25% and 2.55.

Values taken from ChEMBL document CHEMBL4888484, “Replenishing the malaria drug discovery pipeline: Screening and hit evaluation of the MMV Hit Generation Library 1 (HGL1) against asexual blood stage Plasmodium falciparum ,using a nano luciferase reporter read-out” (2022).
